#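 Cultured in 96-well plates, cells were exposed to test compound for 48 hours across five concentrations. The concentration for 50% growth inhibition is given as GI50.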 Certain results were filed several times, with different values. Only these are listed. The source may hold further records. For part of these data: The records of an entry repeat one measurement across runs, samples, wells, individuals or studies. Records carry a tag for their origin. Letters hold for one entry only.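 TGI is the concentration that stops growth completely.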 For part of these data: The tests behind the records often covered other concentration ranges, which the source does not state; a value can be the end of its range.
# How the values were obtained:
# Assay in all cases: NCI-60 cell line screen, 48 h
# 786-0 renal = test system: 786-0 renal
# A549 NSCLC = test system: A549 NSCLC
# BT-549 breast = test system: BT-549 breast
# CAKI-1 renal = test system: CAKI-1 renal
# EKVX NSCLC = test system: EKVX NSCLC
# HT29 colon = test system: HT29 colon
# M14 melanoma = test system: M14 melanoma
# MOLT-4 leukemia = test system: MOLT-4 leukemia
# NCI-H226 lung = test system: NCI-H226 lung
# NCI-H522 lung = test system: NCI-H522 lung
# OVCAR-3 ovarian = test system: OVCAR-3 ovarian
# OVCAR-4 ovarian = test system: OVCAR-4 ovarian
# OVCAR-8 ovarian = test system: OVCAR-8 ovarian
# SK-MEL-28 melanoma = test system: SK-MEL-28 melanoma
# TK-10 renal = test system: TK-10 renal
# MCF7 breast = test system: MCF7 breast
# MDA-N = test system: MDA-N
# MDA-MB-231 breast = test system: MDA-MB-231 breast
# NCI/ADR-RES ovarian = test system: NCI/ADR-RES ovarian
# SN12C renal = test system: SN12C renal
# ACHN renal = test system: ACHN renal
# CCRF-CEM leukemia = test system: CCRF-CEM leukemia
# HL-60(TB) leukemia = test system: HL-60(TB) leukemia
# K-562 leukemia = test system: K-562 leukemia
# LOX IMVI melanoma = test system: LOX IMVI melanoma
compound,measurement,setting,value
Cn1c(=O)n(-c2ccc(C(C)(C)C#N)cc2)c2c3cc(-c4cnc5ccccc5c4)ccc3ncc21,TGI,786-0 renal,"6.28 µM [sample A, mean of 2 tests] and > 10 µM [sample B, mean of 2 tests] and > 100 µM [sample C, 1 test]"
same,TGI,A549 NSCLC,"81.7 nM [sample A, mean of 2 tests] and > 10 µM [sample B, mean of 2 tests]"
same,TGI,BT-549 breast,"128 nM [sample A, mean of 2 tests] and > 100 µM [sample B, 1 test]"
same,GI50,CAKI-1 renal,"15.2 nM [sample A, mean of 2 tests] and < 1 nM [sample B, 1 test] and < 12.8 nM [sample C, mean of 2 tests]"
same,TGI,EKVX NSCLC,"> 100 µM [sample A, 1 test] and 137 nM [sample B, mean of 2 tests]"
same,TGI,HT29 colon,"2.52 µM [sample A, mean of 2 tests] and > 10 µM [sample B, mean of 2 tests] and > 100 µM [sample C, mean of 2 tests]"
same,TGI,M14 melanoma,"2.41 µM [sample A, mean of 2 tests] and > 5.44 µM [sample B, mean of 2 tests] and 168 nM [sample C, 1 test]"
same,TGI,MOLT-4 leukemia,"> 100 µM [sample A, 1 test] and 2.84 µM [sample B, mean of 2 tests]"
same,TGI,NCI-H226 lung,"18.2 µM [sample A, 1 test] and 293 nM [sample B, 1 test] and > 100 µM [sample C, 1 test]"
same,TGI,NCI-H522 lung,"78 nM [sample A, mean of 2 tests] and > 9.48 µM [sample B, mean of 2 tests] and > 22.8 µM [sample C, mean of 2 tests]"
same,TGI,OVCAR-3 ovarian,"3.89 µM [sample A, mean of 2 tests] and > 7.38 µM [sample B, mean of 2 tests] and > 73.9 µM [sample C, mean of 2 tests]"
same,TGI,OVCAR-4 ovarian,"2.36 µM [sample A, 1 test] and 51.7 nM [sample B, mean of 2 tests] and > 100 µM [sample C, 1 test]"
same,TGI,OVCAR-8 ovarian,"74 nM [sample A, mean of 2 tests] and > 10 µM [sample B, mean of 2 tests] and > 100 µM [sample C, mean of 2 tests]"
same,TGI,SK-MEL-28 melanoma,"13.4 µM [sample A, mean of 2 tests] and 327 nM [sample B, 1 test] and > 100 µM [sample C, mean of 2 tests]"
same,TGI,TK-10 renal,"47.7 nM [sample A, mean of 2 tests] and 708 nM [sample B, mean of 2 tests] and 67.8 nM [sample C, mean of 2 tests]"
COc1ccc(/C=C\c2cc(OC)c(OC)c(OC)c2)cc1OP(=O)(O)O,TGI,MCF7 breast,"> 100 µM [sample A, mean of 3 tests] and > 100 µM [sample B, 1 test] and 854 nM [sample B, mean of 2 tests]"
same,TGI,MDA-N,"> 100 µM [sample A, 1 test] and 0.136 nM [sample B, mean of 2 tests]"
Oc1ccc2ccccc2c1-c1nnc(CCCCCCCCc2nnc(-c3c(O)ccc4ccccc34)o2)o1,TGI,HT29 colon,1.2 µM and > 68.8 µM
same,TGI,MDA-MB-231 breast,2.02 µM and > 66.6 µM
same,TGI,MDA-N,7.61 µM and > 100 µM
same,TGI,MOLT-4 leukemia,479 nM and > 37.3 µM
same,TGI,NCI/ADR-RES ovarian,1.11 µM and > 100 µM
same,TGI,OVCAR-3 ovarian,25 µM and 2.2 µM
same,TGI,OVCAR-8 ovarian,2.66 µM and > 100 µM
same,TGI,SN12C renal,3.37 µM and > 49.3 µM
CCCCCCCCCCCCCCCCP(=O)(O)OP(=O)(O)OCC1OC(n2ccc(N)nc2=O)C(O)C1O (stereo unspecified),GI50,786-0 renal,"> 100 µM [sample A, 1 test] and 8.01 µM [sample B, mean of 2 tests]"
same,GI50,A549 NSCLC,"> 100 µM [sample A, 1 test] and 2.52 µM [sample B, mean of 2 tests]"
same,GI50,ACHN renal,"> 100 µM [sample A, 1 test] and 4.75 µM [sample B, mean of 2 tests]"
same,GI50,CCRF-CEM leukemia,"> 100 µM [sample A, 1 test] and 229 nM [sample B, mean of 2 tests]"
same,GI50,HL-60(TB) leukemia,"> 100 µM [sample A, 1 test] and 4.76 µM [sample B, mean of 2 tests]"
same,GI50,K-562 leukemia,"> 100 µM [sample A, 1 test] and 8.9 µM [sample B, mean of 2 tests]"
same,GI50,LOX IMVI melanoma,"> 100 µM [sample A, 1 test] and 9.46 µM [sample B, mean of 2 tests]"
same,GI50,M14 melanoma,"> 100 µM [sample A, 1 test] and 6.44 µM [sample B, mean of 2 tests]"
same,GI50,MOLT-4 leukemia,"> 100 µM [sample A, 1 test] and 426 nM [sample B, mean of 2 tests]"
same,GI50,NCI/ADR-RES ovarian,"> 100 µM [sample A, 1 test] and 7.62 µM [sample B, mean of 2 tests]"
same,GI50,OVCAR-8 ovarian,"> 100 µM [sample A, 1 test] and 1.17 µM [sample B, mean of 2 tests]"

# Source: PubChem BioAssay (NCI)
